Tested on: S. aureus ATCC29213
Assay: Killing curve determination (time-kill curve)
Source text: Williams & Wilkins 1996).

## CCCCN(CCCC)c1ccc(/C=C/C(=O)c2ccccc2CN2CCN(C)CC2)cc1 [A031, (E)-3-(4-Dibutylamino-phenyl)-1-[2-(4-methyl-piperazin-1-ylmethyl)-phenyl]-propenone]
  dependence of the bactericidal action: primarily dependent on the concentration of the test compound
